Measurements published in PubChem BioAssay AID2313 (Broad Institute, 2010).
Several values for one entry are separate records, joined by “and”; a condition that tells them apart may be missing. Equal entries are not always repeated. In all, about 22,000 compounds went through this assay and about 460 (2.1%) were called active. This list was built around the results that the source calls inconclusive (neither active nor inactive); the mix of calls is not that of the screen.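 The calls were made as follows: active = mean inhibition across valid replicates above about 65% (limit read from the data); inconclusive = mean under the limit, yet half or more replicates past it; inactive = the rest.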

experiment: Shh-driven Gli reporter inhibition – luminescence, Shh-LIGHT2 cells, Gli-luciferase, primary screen (AID 2313); conditions: 30 h, stronger effect = higher value;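 also: pathway switched on by Shh-conditioned medium diluted 1 in 25 in low serum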

Row | Structure (SMILES) | inhibition
1 | COc1ccc(NC(=O)N(C)C[C@H]2Oc3ccc(NC(=O)Nc4ccc5c(c4)OCO5)cc3CC(=O)N([C@@H](C)CO)C[C@@H]2C)cc1 | inactive: -16.3%
2 | C[C@@H]1CN([C@@H](C)CO)C(=O)c2cccc(NC(=O)Nc3ccccc3)c2O[C@H]1CN(C)Cc1ccc(C(F)(F)F)cc1 | active: 73.7%
3 | CCOC(=O)CSc1n[nH]c(CN2c3ccccc3Sc3ccccc32)n1 | inconclusive: 61.9%
4 | CC(C)=CCc1cc2c(c(CC=C(C)C)c1O)O[C@H](c1ccc(O)cc1)[C@@H](O)C2=O | inactive: 23.2%
5 | C[C@H]1CN([C@@H](C)CO)C(=O)Cc2cc(NC(=O)c3ccncc3)ccc2O[C@H]1CN(C)C | inconclusive: 37%
6 | C[C@@H]1CN([C@@H](C)CO)C(=O)c2cccc(NS(=O)(=O)c3cccs3)c2O[C@@H]1CN(C)Cc1ccc(C(=O)O)cc1 | inconclusive: 18.2%
7 | C[C@]12CCC(=O)C=C1CC[C@@H]1C2CC[C@@]2(C)C1CC[C@@H]2C(=O)CO (some centres undefined) | inconclusive: 63%
8 | CN1C(=O)C(C(=O)NC(C)(C)C)C2CC1(C)Oc1ccccc12 (centres undefined) | inactive: -32.5%
9 | C[C@H](CO)N1C[C@H](C)[C@H](CN(C)Cc2ccc(Cl)c(Cl)c2)Oc2c(NS(=O)(=O)c3ccc(F)cc3)cccc2C1=O | active: 85.5%
10 | COc1ccc(S(=O)(=O)N(C)C[C@@H]2Oc3c(NC(=O)C4CCCCC4)cccc3C(=O)N([C@@H](C)CO)C[C@H]2C)cc1 | inconclusive: 46%
11 | CC1(C)CCC(C)(C)c2cc(C(=O)Nc3ccc(C(=O)O)cc3)ccc21 | inconclusive: 46.8%
12 | COc1ccc(NC(=O)Nc2ccc3c(c2)C(=O)N([C@@H](C)CO)C[C@H](C)[C@H](CN(C)C(=O)Nc2c(C)noc2C)O3)cc1 | inactive: -11.3%
13 | C[C@@H]1CN([C@@H](C)CO)C(=O)c2cccc(NC(=O)c3ccc(-c4nccs4)cc3)c2O[C@@H]1CN(C)C(=O)Nc1cccc2ccccc12 | active: 66%
14 | C[C@@H]1CCCCO[C@H](CN(C)S(=O)(=O)c2ccc(F)cc2)[C@@H](C)CN([C@H](C)CO)C(=O)c2cc(NS(=O)(=O)c3cccs3)ccc2O1 | inconclusive: 63.3%
15 | C[C@H](CO)N1C[C@H](C)[C@@H](CN(C)Cc2ccc(Oc3ccccc3)cc2)Oc2c(NC(=O)Nc3ccc(F)cc3)cccc2C1=O | inconclusive: 11.5%
16 | C[C@@H]1CN([C@@H](C)CO)C(=O)c2cccc(NC(=O)Nc3ccc(C(F)(F)F)cc3)c2O[C@@H]1CN(C)S(=O)(=O)c1ccc(Cl)cc1 | inconclusive: 52.4%
17 | COc1ccc(CN(C)C[C@H]2OCCCC[C@@H](C)Oc3ccc(NC(=O)C4CCCCC4)cc3C(=O)N([C@H](C)CO)C[C@@H]2C)cc1 | inconclusive: 46.2%
18 | CC(=O)Oc1ccc2occ(C(=O)CCN(C)C)c2c1 | inactive: 20.6%
19 | COc1ccc(S(=O)(=O)N(C)C[C@H]2Oc3ccc(NS(=O)(=O)c4ccc(C)cc4)cc3CC(=O)N([C@H](C)CO)C[C@H]2C)cc1 | inconclusive: 38.4%
20 | Cc1ccc(S(=O)(=O)N(C)C[C@H]2Oc3c(NC(=O)Nc4cccc5ccccc45)cccc3C(=O)N([C@@H](C)CO)C[C@@H]2C)cc1 | inconclusive: 60%

Row | Structure (SMILES) | inhibition
21 | CN1CCC(=C2c3ccccc3CCc3sccc32)CC1 | inconclusive: 61.1% and inconclusive: 63.9%
22 | C[C@H](CO)N1C[C@H](C)[C@H](CN(C)C(=O)NC2CCCCC2)Oc2c(NS(=O)(=O)c3ccc(Cl)cc3)cccc2C1=O | active: 99.9%
23 | Cc1ccc(S(=O)(=O)Nc2ccc3c(c2)C(=O)N([C@H](C)CO)C[C@H](C)[C@H](CN(C)C(=O)Nc2ccc(C(F)(F)F)cc2)OCCCC[C@@H](C)O3)cc1 | inactive: 37.7%
24 | Nc1nc(N(Cc2ccccc2)Cc2ccccc2)nc(C(F)(F)F)n1 | inconclusive: 64.2%
25 | Cc1ccc(S(=O)(=O)N(C)C[C@@H]2OCCCC[C@@H](C)Oc3ccc(NS(=O)(=O)c4c(C)noc4C)cc3C(=O)N([C@H](C)CO)C[C@@H]2C)cc1 | inconclusive: 63.6%
26 | C[C@H]1CN([C@@H](C)CO)C(=O)Cc2cc(NC(=O)Nc3ccc4c(c3)OCO4)ccc2O[C@@H]1CN(C)Cc1ccc(C(F)(F)F)cc1 | inactive: -40.5%
27 | C[C@H](CO)N1C[C@H](C)[C@@H](CN(C)S(=O)(=O)c2ccc(Cl)cc2)Oc2c(NC(=O)Nc3ccc4c(c3)OCO4)cccc2C1=O | inconclusive: 33.5%
28 | Cc1noc(C)c1NC(=O)Nc1cccc2c1O[C@H](CN(C)Cc1ccc(Oc3ccccc3)cc1)[C@@H](C)CN([C@H](C)CO)C2=O | inconclusive: 57.1%
29 | COc1ccc(S(=O)(=O)N(C)C[C@@H]2Oc3ccc(NC(=O)Nc4ccc5c(c4)OCO5)cc3CC(=O)N([C@@H](C)CO)C[C@@H]2C)cc1 | inactive: -10.6%
30 | C[C@@H]1CN([C@H](C)CO)C(=O)Cc2cc(NS(=O)(=O)c3ccccc3)ccc2O[C@H]1CN(C)S(=O)(=O)c1ccc(Cl)cc1 | inconclusive: 22.7%
31 | CC1(C)CC(=O)c2c(SCCOC(=O)c3ccccc3Cl)sc(C#N)c2C1 | inactive: 6.95%
32 | CC1(C)O[C@@H]2CC3C4C[C@H](F)C5=CC(=O)CC[C@]5(C)C4[C@@H](O)C[C@]3(C)[C@]2(C(=O)CO)O1 (some centres undefined) | inconclusive: 51.3%
33 | C[C@@H]1CN([C@H](C)CO)C(=O)c2cccc(NS(=O)(=O)c3ccc(F)cc3)c2O[C@H]1CN(C)CC1CCCCC1 | inconclusive: 23.7%
34 | O=C1c2ccccc2-[n+]2ccc3c([nH]c4ccccc43)c21 | inconclusive: 52.2%
35 | COc1ccc(NC(=O)Nc2ccc3c(c2)CC(=O)N([C@H](C)CO)C[C@@H](C)[C@H](CN(C)C(=O)Nc2ccc4c(c2)OCO4)O3)cc1 | inconclusive: 44.2%
36 | N#Cc1ccc(CSc2nc(-c3cccs3)c3c(c2C(=O)O)CCCC3)cc1 | inconclusive: 64.1%
37 | CCOC(=O)c1cnc2cc(C(F)(F)F)ccc2c1N(C)Cc1ccccc1 | inconclusive: 40.9%
38 | C[C@H]1CN([C@@H](C)CO)C(=O)c2cccc(NC(=O)c3nc4ccccc4s3)c2O[C@@H]1CN(C)S(=O)(=O)c1ccccc1 | inconclusive: 36%
39 | COc1ccc(S(=O)(=O)N(C)C[C@@H]2Oc3ccc(NS(=O)(=O)c4ccccc4)cc3CC(=O)N([C@@H](C)CO)C[C@@H]2C)cc1 | inactive: 30.8%
40 | Cc1cc(=O)oc2c(O)c(O)ccc12 | inconclusive: 17.7%

Row | Structure (SMILES) | inhibition
41 | C[C@@H]1CN([C@@H](C)CO)C(=O)Cc2cc(NC(=O)Nc3ccc(C(F)(F)F)cc3)ccc2O[C@@H]1CN(C)S(=O)(=O)c1cn(C)cn1 | inconclusive: 22%
42 | C[C@@H]1CCCCO[C@H](CN(C)Cc2ccc(Cl)c(Cl)c2)[C@@H](C)CN([C@H](C)CO)C(=O)c2cc(NC(=O)c3ccncc3)ccc2O1 | inconclusive: 49.2%
43 | C[C@@H]1CN([C@@H](C)CO)C(=O)c2cccc(NC(=O)C3CCCCC3)c2O[C@@H]1CN(C)Cc1ccc2c(c1)OCO2 | inconclusive: 41.6%
44 | CCC(C)CC(C)/C=C\C1OC2=C(C(=O)OC2(C)O)C(O)C1O (centres undefined) | inconclusive: 53.6%
45 | Cc1ccc(C(=O)CC(C(=O)O)N2CCN(C)CC2)cc1 (centres undefined) | inconclusive: 38.9%
46 | Cc1noc(C)c1S(=O)(=O)N(C)C[C@@H]1Oc2ccc(NC(=O)Nc3ccccc3)cc2CC(=O)N([C@H](C)CO)C[C@H]1C | inconclusive: 28.2%
47 | C[C@@H]1CCCCO[C@@H](CN(C)C(=O)c2ccncc2)[C@@H](C)CN([C@H](C)CO)C(=O)c2cc(NS(C)(=O)=O)ccc2O1 | inactive: -8.77%
48 | O=C(NCCc1ccc(S(=O)(=O)N2CCCC2)cc1)c1cccc2ccccc12 | inconclusive: 47.5%
49 | C[C@@H]1CN([C@@H](C)CO)C(=O)c2cccc(NC(=O)c3ccc(-c4nccs4)cc3)c2O[C@@H]1CN(C)C(=O)NC1CCCCC1 | inconclusive: 47.7%
50 | C[C@@H]1CN([C@H](C)CO)C(=O)Cc2cc(NC(=O)c3ccncc3)ccc2O[C@@H]1CN(C)Cc1ccc(Oc2ccccc2)cc1 | active: 72.9%
51 | C[C@H]1CN([C@@H](C)CO)C(=O)c2cccc(NC(=O)Nc3cccc4ccccc34)c2O[C@H]1CN(C)Cc1ccc(C(=O)O)cc1 | inconclusive: 38.1%
52 | C[C@@H]1CN([C@@H](C)CO)C(=O)c2cccc(NC(=O)C3CCCCC3)c2O[C@@H]1CN(C)CC1CC1 | inactive: -1.77%
53 | C[C@H]1CN([C@@H](C)CO)C(=O)c2cccc(NC(=O)Nc3ccc(C(F)(F)F)cc3)c2O[C@H]1CN(C)S(=O)(=O)c1ccc(F)cc1 | inconclusive: 60.1%
54 | CCN(CC)CCNc1ccc(CO)c2sc3ccccc3c(=O)c12 | inconclusive: 57.8%
55 | COc1ccc(CN(C)C[C@H]2OCCCC[C@@H](C)Oc3ccc(NC(=O)Nc4ccc(C(F)(F)F)cc4)cc3C(=O)N([C@H](C)CO)C[C@@H]2C)cc1 | inconclusive: 60.7%
56 | C[C@@H]1CN([C@H](C)CO)C(=O)c2cccc(NC(=O)c3ccc(-c4nccs4)cc3)c2O[C@@H]1CN(C)Cc1ccc(Oc2ccccc2)cc1 | active: 70.5%
57 | Cn1c(-c2ccc(Cl)cc2)cs/c1=N\C(=S)NCCc1ccccc1 | active: 91.1%
58 | C[C@@H]1CCCCO[C@H](CN(C)S(=O)(=O)c2ccc(Cl)cc2)[C@@H](C)CN([C@H](C)CO)C(=O)c2cc(NC(=O)CCC(F)(F)F)ccc2O1 | inconclusive: 22.4%
59 | COc1ccccc1NC(=O)/C=C\c1ccco1 | active: 67.8%
